Experimental data as given in the supplement of paper PMC4604168 (melanoma cell lines).
This is one part of the list. Single values are uncertain, as repeats are few or missing.

Tests used:
Assay in all cases: cell count relative to DMSO control; melanoma cells; higher = more viable cells
Conditions in all cases: library dose: standard library concentration; 72 h
SkMel28 = tested on: SkMel28
SkMel2 = tested on: SkMel2
SkMel30 = tested on: SkMel30
SkMel5 = tested on: SkMel5
UACC257 = tested on: UACC257
UACC62 = tested on: UACC62
WM115 = tested on: WM115
WM1716 = tested on: WM1716
WM1745 = tested on: WM1745
WM3526 = tested on: WM3526
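Note: cells treated in 1,536-well plates, then fixed and DAPI-stained, with nuclei counted from automated high-throughput microscope images.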

SMILES	cell count (SkMel28) [%]	cell count (SkMel2) [%]	cell count (SkMel30) [%]	cell count (SkMel5) [%]	cell count (UACC257) [%]	cell count (UACC62) [%]	cell count (WM115) [%]	cell count (WM1716) [%]	cell count (WM1745) [%]	cell count (WM3526) [%]
O=C(/C=C/c1cccnc1)NCCCCC1CCN(C(=O)c2ccccc2)CC1 + CN(C)S(=O)(=O)c1ccc2c(c1)/C(=C/c1cc3c([nH]1)CCCC3)C(=O)N2 [SU6656] (first compound 0.05 µM, partner dose 2 µM)	73.6	34.1	105	93.4	79	56.9	59.6	76.8	77.7	108
O=C(/C=C/c1cccnc1)NCCCCC1CCN(C(=O)c2ccccc2)CC1 + C[C@@H](Oc1cc(-c2cnn(C3CCNCC3)c2)cnc1N)c1c(Cl)ccc(F)c1Cl [Crizotinib] (first compound 0.05 µM, partner dose 1 µM)	60.5	16.6	84.9	92.3	96.9	82.5	67.7	76.2	71.4	81.3
O=C(/C=C/c1cccnc1)NCCCCC1CCN(C(=O)c2ccccc2)CC1 + CC1(C)CCC(c2ccc(Cl)cc2)=C(CN2CCN(c3ccc(C(=O)NS(=O)(=O)c4ccc(N[C@H](CCN5CCOCC5)CSc5ccccc5)c(S(=O)(=O)C(F)(F)F)c4)cc3)CC2)C1 [ABT263] (first compound 0.05 µM, partner dose 2 µM)	62.9	5.36	62.9	107	42.8	77.9	64.2	48.6	2.78	117
Cc1ccc(Nc2nccc(N(C)c3ccc4c(C)n(C)nc4c3)n2)cc1S(N)(=O)=O [Pazopanib] + Cc1cn(-c2cc(NC(=O)c3ccc(C)c(Nc4nccc(-c5cccnc5)n4)c3)cc(C(F)(F)F)c2)cn1 [nilotinib] (first compound 2 µM, partner dose 1 µM)	81.2	87.8	93	48.8	83.7	54.3	92.5	112	84.5	71.8
O=C(/C=C/c1cccnc1)NCCCCC1CCN(C(=O)c2ccccc2)CC1 + Nc1ccn([C@@H]2O[C@H](CO)[C@@H](O)C2(F)F)c(=O)n1 [gemcitabine] (first compound 0.05 µM, partner dose 0.002 µM)	90.5	19.8	136	102	112	77.4	104	71.4	69.2	123
Cc1ccc(Nc2nccc(N(C)c3ccc4c(C)n(C)nc4c3)n2)cc1S(N)(=O)=O [Pazopanib] + CC1(C)NC(=O)N(c2ccc([N+](=O)[O-])c(C(F)(F)F)c2)C1=O [nilutamide] (first compound 2 µM, partner dose 5 µM)	91.2	97.8	99.5	74	79	67.2	136	106	104	82.4
Cc1ccc(Nc2nccc(N(C)c3ccc4c(C)n(C)nc4c3)n2)cc1S(N)(=O)=O [Pazopanib] + Cn1sc(=O)n(Cc2ccccc2)c1=O [TDZD-8] (first compound 2 µM, partner dose 2 µM)	68.2	68.9	66.1	64.6	91.8	83.6	81.1	86.3	82.6	77.2
O=C(/C=C/c1cccnc1)NCCCCC1CCN(C(=O)c2ccccc2)CC1 + Cc1ccc(NC(=O)c2cccc(N(C)C)c2)cc1NC(=O)c1ccc(O)cc1 [ZM336372] (first compound 0.05 µM, partner dose 10 µM)	74.6	30.6	110	114	105	98	83.5	113	113	87.2
O=C(/C=C/c1cccnc1)NCCCCC1CCN(C(=O)c2ccccc2)CC1 + Cn1nnc2c(C(N)=O)ncn2c1=O [temozolomide] (first compound 0.05 µM, partner dose 10 µM)	39.5	9.23	95.6	103	126	51.2	78	62.8	102	111
CC1(C)CCC(c2ccc(Cl)cc2)=C(CN2CCN(c3ccc(C(=O)NS(=O)(=O)c4ccc(N[C@H](CCN5CCOCC5)CSc5ccccc5)c(S(=O)(=O)C(F)(F)F)c4)cc3)CC2)C1 + CC(=O)c1c(C)c2cnc(Nc3ccc(N4CCNCC4)cn3)nc2n(C2CCCC2)c1=O [palbociclib] (first compound 2 µM, partner dose 0.2 µM)	39.9	56.6	47.1	34.4	35	31.4	49.8	26.1	9.65	56
CC1(C)CCC(c2ccc(Cl)cc2)=C(CN2CCN(c3ccc(C(=O)NS(=O)(=O)c4ccc(N[C@H](CCN5CCOCC5)CSc5ccccc5)c(S(=O)(=O)C(F)(F)F)c4)cc3)CC2)C1 + CS(=O)(=O)c1ccc(C(=O)Nc2ccc(Cl)c(-c3ccccn3)c2)c(Cl)c1 [vismodegib] (first compound 2 µM, partner dose 5 µM)	79.4	77.1	62.3	64.8	35	61	67.8	58.2	3.09	69.5
Cc1ccc(Nc2nccc(N(C)c3ccc4c(C)n(C)nc4c3)n2)cc1S(N)(=O)=O [Pazopanib] + CN(c1ncccc1CNc1nc(Nc2ccc3c(c2)CC(=O)N3)ncc1C(F)(F)F)S(C)(=O)=O [PF562271] (first compound 2 µM, partner dose 0.4 µM)	80.3	94.2	84.9	60	64.7	59.1	66.9	68.8	65.9	102
Cc1ccc(Nc2nccc(N(C)c3ccc4c(C)n(C)nc4c3)n2)cc1S(N)(=O)=O [Pazopanib] + Cn1cnc2c(F)c(Nc3ccc(Br)cc3Cl)c(C(=O)NOCCO)cc21 [selumetinib] (first compound 2 µM, partner dose 0.075 µM)	35	44.7	68	77.6	85.7	74.7	70.3	67.2	61.3	56.1
O=C(/C=C/c1cccnc1)NCCCCC1CCN(C(=O)c2ccccc2)CC1 + CO[C@H]1C[C@@H]2CC[C@@H](C)[C@@](O)(O2)C(=O)C(=O)N2CCCC[C@H]2C(=O)O[C@H]([C@H](C)C[C@@H]2CC[C@@H](OCCO)[C@H](OC)C2)CC(=O)[C@H](C)/C=C(\C)[C@@H](O)[C@@H](OC)C(=O)[C@H](C)C[C@H](C)/C=C/C=C/C=C/1C [everolimus] (first compound 0.05 µM, partner dose 0.1 µM)	46.7	29.7	72.7	63.9	98	64.6	83	86.5	68.7	65
Cc1ccc(Nc2nccc(N(C)c3ccc4c(C)n(C)nc4c3)n2)cc1S(N)(=O)=O [Pazopanib] + Cc1cc(Nc2cc(N3CCN(C)CC3)nc(/C=C/c3ccccc3)n2)n[nH]1 [ENMD2076] (first compound 2 µM, partner dose 0.2 µM)	70.2	78	76.1	68.7	75.1	53.6	63.6	63.1	67	68.6
Cc1ccc(Nc2nccc(N(C)c3ccc4c(C)n(C)nc4c3)n2)cc1S(N)(=O)=O [Pazopanib] + C[C@@H]1CCN(C(=O)CC#N)C[C@@H]1N(C)c1ncnc2[nH]ccc12 [CP690550] (first compound 2 µM, partner dose 5 µM)	77.5	91.9	93.6	67.7	68.5	86.7	111	89	115	78.2
Cc1ccc(Nc2nccc(N(C)c3ccc4c(C)n(C)nc4c3)n2)cc1S(N)(=O)=O [Pazopanib] + O=C(O)c1ccc(-c2c[nH]c3ncc(-c4ccccc4)cc23)cc1C1CCCC1 [GSK650394] (first compound 2 µM, partner dose 0.8 µM)	88.2	88.6	86.8	83.3	79.3	72.3	108	71.9	98.1	74.1
O=C(/C=C/c1cccnc1)NCCCCC1CCN(C(=O)c2ccccc2)CC1 + O=C(CCCCCCC(=O)Nc1ccccc1)NO [vorinostat] (first compound 0.05 µM, partner dose 0.4 µM)	51.6	64.2	85	81.2	68.4	67.7	67.4	83.4	73.9	76
CC1(C)CCC(c2ccc(Cl)cc2)=C(CN2CCN(c3ccc(C(=O)NS(=O)(=O)c4ccc(N[C@H](CCN5CCOCC5)CSc5ccccc5)c(S(=O)(=O)C(F)(F)F)c4)cc3)CC2)C1 + CC(=O)O[C@@]12CO[C@@H]1C[C@H](O)[C@@]1(C)C(=O)[C@H](O)C3=C(C)[C@@H](OC(=O)[C@H](O)[C@@H](NC(=O)OC(C)(C)C)c4ccccc4)C[C@@](O)([C@@H](OC(=O)c4ccccc4)[C@H]21)C3(C)C [Docetaxel] (first compound 2 µM, partner dose 0.0005 µM)	7.07	8.67	27.2	28.9	38	34	12.6	23.3	2.35	28.9
CC1(C)CCC(c2ccc(Cl)cc2)=C(CN2CCN(c3ccc(C(=O)NS(=O)(=O)c4ccc(N[C@H](CCN5CCOCC5)CSc5ccccc5)c(S(=O)(=O)C(F)(F)F)c4)cc3)CC2)C1 + C=CCn1c(=O)c2cnc(Nc3ccc(N4CCN(C)CC4)cc3)nc2n1-c1cccc(C(C)(C)O)n1 [MK1775] (first compound 2 µM, partner dose 0.1 µM)	24.8	60.1	52.5	47.1	44.6	45.1	41.1	52.3	1.8	75.5
